By IC50 is meant the dose at which the fit gives 50% viability; a limit (>, <) means that the fit lies beyond the doses tested. AUC sums up the same curve from the lowest dose to the 256-fold higher top dose: 1 means no effect, lower means more sensitive. For part of these data: A top dose marked as inferred was calculated from the reported fits.
Assays:
Test in all cases: Viability of human cancer cell lines after 72 h of drug (GDSC screen)
KIN001-244 = compound: O=C(NC(COc1ccc2[nH]c(=O)[nH]c2c1)c1ccccc1)c1cccn(Cc2ccc(F)c(F)c2)c1=O [KIN001-244]; conditions: top dose 20 µM; top dose inferred
Procedure: (§1)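 Human cancer cell lines in 384-well plates, medium with 10% serum, drug for 72 h over a 256-fold dose range (nine 2-fold or five 4-fold steps up to the top dose). Adherent lines were fixed and stained with the nucleic acid dye Syto60, suspension lines read with resazurin; signal relative to control wells, capped at 0 and 100%. One two-parameter sigmoid per drug and line, fitted in a mixed model over all curves with the slope shared within a line.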

AV-951 = compound: COc1cc2nccc(Oc3ccc(NC(=O)Nc4cc(C)on4)c(Cl)c3)c2cc1OC [AV-951]; conditions: top dose 0.128 µM; top dose inferred
Procedure: as §1

Trametinib = compound: CC(=O)Nc1cccc(-n2c(=O)n(C3CC3)c(=O)c3c(Nc4ccc(I)cc4F)n(C)c(=O)c(C)c32)c1 [Trametinib]; conditions: top dose 1 µM
Procedure: as §1

HG-6-64-1 = compound: CCN1CCN(Cc2ccc(NC(=O)c3ccc(C)c(/C=C/c4cnc5[nH]ccc5c4OC)c3)cc2C(F)(F)F)CC1 [HG-6-64-1]; conditions: top dose 5.12 µM; top dose inferred
Procedure: as §1

PF-4708671 = compound: CCc1cncnc1N1CCN(Cc2nc3ccc(C(F)(F)F)cc3[nH]2)CC1 [PF-4708671]; conditions: top dose 10 µM; top dose inferred
Procedure: as §1

I-BET-762 = compound: CCNC(=O)C[C@@H]1N=C(c2ccc(Cl)cc2)c2cc(OC)ccc2-n2c(C)nnc21 [I-BET-762]; conditions: top dose 20 µM; top dose inferred
Procedure: as §1

MS-275 = compound: Nc1ccccc1NC(=O)c1ccc(CNC(=O)OCc2cccnc2)cc1 [MS-275]; conditions: top dose 5 µM; top dose inferred
Procedure: as §1

## MS-1 (small cell lung carcinoma, suspension)
KIN001-244
  AUC: 0.935
  IC50: > 20000 nM
AV-951
  AUC: 0.99
  IC50: > 128 nM
Trametinib
  AUC: 0.991
  IC50: > 1000 nM
HG-6-64-1
  AUC: 0.912
  IC50: > 5120 nM
PF-4708671
  AUC: 0.978
  IC50: > 10000 nM
I-BET-762
  AUC: 0.758
  IC50: 6250 nM
MS-275
  AUC: 0.98
  IC50: > 5000 nM

## MZ1-PC (pancreas, adherent)
KIN001-244
  AUC: 0.882
  IC50: > 20000 nM
AV-951
  AUC: 0.98
  IC50: > 128 nM
Trametinib
  AUC: 0.129
  IC50: < 3.91 nM
HG-6-64-1
  AUC: 0.588
  IC50: 592 nM
PF-4708671
  AUC: 0.965
  IC50: > 10000 nM
I-BET-762
  AUC: 0.715
  IC50: 5940 nM
MS-275
  AUC: 0.77
  IC50: 2370 nM

## MZ2-MEL (melanoma, adherent)
KIN001-244
  AUC: 0.756
  IC50: 7910 nM
AV-951
  AUC: 0.973
  IC50: > 128 nM
Trametinib
  AUC: 0.506
  IC50: 65 nM
HG-6-64-1
  AUC: 0.58
  IC50: 552 nM
PF-4708671
  AUC: 0.983
  IC50: > 10000 nM
I-BET-762
  AUC: 0.983
  IC50: > 20000 nM
MS-275
  AUC: 0.894
  IC50: > 5000 nM

## MZ7-mel (melanoma, adherent)
KIN001-244
  AUC: 0.853
  IC50: 16400 nM
AV-951
  AUC: 0.984
  IC50: > 128 nM
Trametinib
  AUC: 0.154
  IC50: 5.08 nM
HG-6-64-1
  AUC: 0.756
  IC50: 1810 nM
PF-4708671
  AUC: 0.974
  IC50: > 10000 nM
I-BET-762
  AUC: 0.683
  IC50: 4140 nM
MS-275
  AUC: 0.602
  IC50: 601 nM

## Mo-T (hairy cell leukaemia, suspension)
KIN001-244
  AUC: 0.877
  IC50: > 20000 nM
AV-951
  AUC: 0.966
  IC50: > 128 nM
Trametinib
  AUC: 0.979
  IC50: > 1000 nM
HG-6-64-1
  AUC: 0.983
  IC50: > 5120 nM
PF-4708671
  AUC: 0.978
  IC50: > 10000 nM
I-BET-762
  AUC: 0.879
  IC50: > 20000 nM
MS-275
  AUC: 0.988
  IC50: > 5000 nM

## NAMALWA (Burkitt lymphoma, suspension)
KIN001-244
  AUC: 0.903
  IC50: 19000 nM
AV-951
  AUC: 0.985
  IC50: > 128 nM
Trametinib
  AUC: 0.991
  IC50: > 1000 nM
HG-6-64-1
  AUC: 0.791
  IC50: 1910 nM
PF-4708671
  AUC: 0.969
  IC50: > 10000 nM
I-BET-762
  AUC: 0.647
  IC50: 2970 nM
MS-275
  AUC: 0.525
  IC50: 361 nM

## NB1 (neuroblastoma, semi-adherent)
KIN001-244
  AUC: 0.846
  IC50: 16800 nM
AV-951
  AUC: 0.981
  IC50: > 128 nM
Trametinib
  AUC: 0.77
  IC50: 420 nM
HG-6-64-1
  AUC: 0.94
  IC50: > 5120 nM
PF-4708671
  AUC: 0.91
  IC50: > 10000 nM
I-BET-762
  AUC: 0.928
  IC50: > 20000 nM
MS-275
  AUC: 0.734
  IC50: 1580 nM

## NB5 (neuroblastoma, adherent)
KIN001-244
  AUC: 0.79
  IC50: 9020 nM
AV-951
  AUC: 0.984
  IC50: > 128 nM
Trametinib
  AUC: 0.343
  IC50: 22.7 nM
HG-6-64-1
  AUC: 0.915
  IC50: > 5120 nM
PF-4708671
  AUC: 0.923
  IC50: > 10000 nM
I-BET-762
  AUC: 0.885
  IC50: > 20000 nM
MS-275
  AUC: 0.762
  IC50: 1810 nM

## NB7 (neuroblastoma, adherent)
KIN001-244
  AUC: 0.902
  IC50: > 20000 nM
AV-951
  AUC: 0.98
  IC50: > 128 nM
Trametinib
  AUC: 0.964
  IC50: > 1000 nM
HG-6-64-1
  AUC: 0.734
  IC50: 1540 nM
PF-4708671
  AUC: 0.921
  IC50: > 10000 nM
I-BET-762
  AUC: 0.922
  IC50: > 20000 nM
MS-275
  AUC: 0.842
  IC50: 3750 nM

## NB10 (neuroblastoma, adherent)
KIN001-244
  AUC: 0.876
  IC50: 19100 nM
AV-951
  AUC: 0.988
  IC50: > 128 nM
Trametinib
  AUC: 0.533
  IC50: 76.9 nM
HG-6-64-1
  AUC: 0.954
  IC50: > 5120 nM
PF-4708671
  AUC: 0.958
  IC50: > 10000 nM
I-BET-762
  AUC: 0.81
  IC50: 10200 nM
MS-275
  AUC: 0.732
  IC50: 1400 nM

## NB12 (neuroblastoma, adherent)
KIN001-244
  AUC: 0.938
  IC50: > 20000 nM
AV-951
  AUC: 0.965
  IC50: > 128 nM
Trametinib
  AUC: 0.529
  IC50: 77.2 nM
HG-6-64-1
  AUC: 0.61
  IC50: 711 nM
PF-4708671
  AUC: 0.98
  IC50: > 10000 nM
I-BET-762
  AUC: 0.683
  IC50: 4880 nM
MS-275
  AUC: 0.514
  IC50: 345 nM

## NB13 (neuroblastoma, adherent)
KIN001-244
  AUC: 0.726
  IC50: 5010 nM
AV-951
  AUC: 0.99
  IC50: > 128 nM
Trametinib
  AUC: 0.984
  IC50: > 1000 nM
HG-6-64-1
  AUC: 0.905
  IC50: > 5120 nM
PF-4708671
  AUC: 0.969
  IC50: > 10000 nM
I-BET-762
  AUC: 0.807
  IC50: 8890 nM
MS-275
  AUC: 0.622
  IC50: 650 nM

## NB14 (neuroblastoma, adherent)
KIN001-244
  AUC: 0.747
  IC50: 6090 nM
AV-951
  AUC: 0.986
  IC50: > 128 nM
Trametinib
  AUC: 0.815
  IC50: 509 nM
HG-6-64-1
  AUC: 0.914
  IC50: > 5120 nM
PF-4708671
  AUC: 0.947
  IC50: > 10000 nM
I-BET-762
  AUC: 0.929
  IC50: > 20000 nM
MS-275
  AUC: 0.641
  IC50: 749 nM

## NB(TU)1-10 (neuroblastoma, adherent)
KIN001-244
  AUC: 0.85
  IC50: 12100 nM
AV-951
  AUC: 0.993
  IC50: > 128 nM
Trametinib
  AUC: 0.991
  IC50: > 1000 nM
HG-6-64-1
  AUC: 0.663
  IC50: 848 nM
PF-4708671
  AUC: 0.956
  IC50: > 10000 nM
I-BET-762
  AUC: 0.638
  IC50: 2840 nM
MS-275
  AUC: 0.696
  IC50: 1020 nM

## NB-4 (acute myeloid leukaemia, suspension)
KIN001-244
  AUC: 0.692
  IC50: 3830 nM
AV-951
  AUC: 0.987
  IC50: > 128 nM
Trametinib
  AUC: 0.079
  IC50: < 3.91 nM
HG-6-64-1
  AUC: 0.766
  IC50: 1570 nM
PF-4708671
  AUC: 0.991
  IC50: > 10000 nM
I-BET-762
  AUC: 0.23
  IC50: 249 nM
MS-275
  AUC: 0.437
  IC50: 217 nM

## NCI-H23 (lung adenocarcinoma, adherent)
KIN001-244
  AUC: 0.942
  IC50: > 20000 nM
AV-951
  AUC: 0.981
  IC50: > 128 nM
Trametinib
  AUC: 0.587
  IC50: 108 nM
HG-6-64-1
  AUC: 0.987
  IC50: > 5120 nM
PF-4708671
  AUC: 0.98
  IC50: > 10000 nM
I-BET-762
  AUC: 0.903
  IC50: > 20000 nM
MS-275
  AUC: 0.88
  IC50: > 5000 nM

## NCI-H69 (small cell lung carcinoma, suspension)
KIN001-244
  AUC: 0.944
  IC50: > 20000 nM
AV-951
  AUC: 0.966
  IC50: > 128 nM
Trametinib
  AUC: 0.977
  IC50: > 1000 nM
HG-6-64-1
  AUC: 0.939
  IC50: > 5120 nM
PF-4708671
  AUC: 0.973
  IC50: > 10000 nM
I-BET-762
  AUC: 0.985
  IC50: > 20000 nM
MS-275
  AUC: 0.558
  IC50: 460 nM

## NCI-H82 (small cell lung carcinoma, suspension)
KIN001-244
  AUC: 0.958
  IC50: > 20000 nM
AV-951
  AUC: 0.986
  IC50: > 128 nM
Trametinib
  AUC: 0.981
  IC50: > 1000 nM
HG-6-64-1
  AUC: 0.99
  IC50: > 5120 nM
PF-4708671
  AUC: 0.983
  IC50: > 10000 nM
I-BET-762
  AUC: 0.968
  IC50: > 20000 nM
MS-275
  AUC: 0.76
  IC50: 1670 nM
